Test results reported in the supplement of paper PMC12217912.
The list shows a part of the results. Sequences were assembled here from the parent chain. Values near 0.05 are background.

B1: TEV protease; numbered along this chain (parent)
chain: MGESLFKGPRDYNPISSSICHLTNESDGHTTSLYGIGFGPFIITNKHLFRRNNGTLVVQSLHGVFKVKDTTTLQQHLVDGRDMIIIRMPKDFPPFPQKLKFREPQREERICLVTTNFQTKSMSSMVSDTSCTFPSGDGIFWKHWIQTKDGQCGSPLVSTRDGFIVGIHSASNFTNTNNYFTSVPKNFMELLTNQEAQQWVSGWRLNADSVLWGGHKVFMVKPEEPFQPVKEATQL

Variants of: B1
Test: raw area under fraction-flipped curve 0-4 h after induction (AUC4h, not background-subtracted), DNA-recorder readout of cleavage of the substrate (dimensionless); higher = more cleavage of the substrate by the protease variant
Conditions: temperature: 34 °C; time window: 0-4 h after rhamnose induction
Experimental: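 In vivo DNA recorder in E. coli TOP10(DE3) ΔrhaA at 34 °C. Each TEVp single-site mutant (parent TEVp 0) is paired with a single-site variant of the 7-mer TEVs (canonical ENLYFQ|S). The substrate sits between flexible linkers in a Bxb1-sfGFP-TEVs-SsrA fusion, so cleavage stabilises Bxb1 and speeds flipping of a recombination array, read by NGS. The value is the raw area under the fraction-flipped curve over 0-4 h after rhamnose induction (AUC4h), with ≥20 reads per time point. It is not background-subtracted; inactive controls average about 0.047.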
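Also: Bxb1 expression induced with 0.2% (w/v) L-rhamnose at OD600 near 0.5, cultures sampled hourly, flipped fraction per protease–substrate barcode pair counted by paired-end Illumina sequencing.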

Q: For MGESLFKGPRDYNPISSSICHLTNESDGHTTSLYGIGFGPFIITNKHLFRRNNGTLVVQSLHGVFKVKDTTTLQQHLVDGRDMIIIRMPKDFPPFPQKLKFREPQREERICLVTTNFQTKSMSSMVSDTSCTFPSGDGIFWKHWIQTKDGQCGSPLVSTRDGFIVGIHSASNFTNTNMYFTSVPKNFMELLTNQEAQQWVSGWRLNADSVLWGGHKVFMVKPEEPFQPVKEATQL [N178M], which “area with substrate ECLYFQS” value is on record?
A: 0.145

Q: And the “area with substrate EELYFQS” value?
A: 0.207

Q: What about the “area with substrate EGLYFQS” value of the same variant?
A: 0.167

Q: And the “area with substrate EHLYFQS” value?
A: 0.175

Q: What about the “area with substrate ERLYFQS” value of the same variant?
A: 0.204

Q: And the “area with substrate EWLYFQS” value?
A: 0.177

Q: And the “area with substrate EYLYFQS” value?
A: 0.2

Q: Which “area with substrate ECLYFQS” value does the source give for MGESLFKGPRDYNPISSSICHLTNESDGHTTSLYGIGFGPFIITNKHLFRRNNGTLVVQSLHGVFKVKDTTTLQQHLVDGRDMIIIRMPKDFPPFPQKLKFREPQREERICLVTTNFQTKSMSSMVSDTSCTFPSGDGIFWKHWIQTKDGQCGSPLVSTRDGFIVGIHSASNFTNTNNYFTSVPKNFMELLTNQEAQQWVSGWRLNADAVLWGGHKVFMVKPEEPFQPVKEATQL [S209A] here?
A: 0.0986

Q: And the “area with substrate EILYFQS” value?
A: 0.102

Q: And the “area with substrate EMLYFQS” value?
A: 0.118

Q: What does the source list for MGESLFKGPRDYNPISSSICHLTNESDYHTTSLYGIGFGPFIITNKHLFRRNNGTLVVQSLHGVFKVKDTTTLQQHLVDGRDMIIIRMPKDFPPFPQKLKFREPQREERICLVTTNFQTKSMSSMVSDTSCTFPSGDGIFWKHWIQTKDGQCGSPLVSTRDGFIVGIHSASNFTNTNNYFTSVPKNFMELLTNQEAQQWVSGWRLNADSVLWGGHKVFMVKPEEPFQPVKEATQL [G28Y]?
A: area with substrate ECLYFQS: 0.0742; area with substrate EELYFQS: 0.0991; area with substrate EGLYFQS: 0.0859; area with substrate EILYFQS: 0.0796; area with substrate EKLYFQS: 0.0686; area with substrate ELLYFQS: 0.0729; area with substrate EMLYFQS: 0.0573; area with substrate EPLYFQS: 0.0866; area with substrate EQLYFQS: 0.1; area with substrate ESLYFQS: 0.0844; area with substrate EVLYFQS: 0.0758; area with substrate EWLYFQS: 0.0771; area with substrate EYLYFQS: 0.112

Q: Which results are given for MGESLFKGPRDYNPISSSICHLTNESDGHTTSLYGIGFGPFIITNKHLFRRNNGTLVVQSLHGVFKVKDTTTLQQHLVDGRDMIIIRMPKDFPPFPQKLKFREPQREERICLVTTNFQTKSMSSMVSDTSCTFPSGDGIFWKHWIQTKDGQCGSPLVSTRDGFIVGIHSASNFTNTNNYFTSVPKNFMELLTNQEAQQWVSGWRLNADSVLWGGLKVFMVKPEEPFQPVKEATQL [H215L]?
A: area with substrate ECLYFQS: 0.0883; area with substrate EDLYFQS: 0.0893; area with substrate EELYFQS: 0.0791; area with substrate EHLYFQS: 0.0741; area with substrate EILYFQS: 0.0752; area with substrate ELLYFQS: 0.0746; area with substrate EQLYFQS: 0.0771; area with substrate ERLYFQS: 0.0869; area with substrate ESLYFQS: 0.0644; area with substrate EVLYFQS: 0.0942; area with substrate EYLYFQS: 0.0715

Q: What does the source list for MGESLFKGPRDYNPISSSICHLTNESDGHTTSLYGIGFGPFIITNKHLFRRNNGTLVVQSLHGVFKVKDTTTLQQHLVDGRDMIIIRMPKDFPNFPQKLKFREPQREERICLVTTNFQTKSMSSMVSDTSCTFPSGDGIFWKHWIQTKDGQCGSPLVSTRDGFIVGIHSASNFTNTNNYFTSVPKNFMELLTNQEAQQWVSGWRLNADSVLWGGHKVFMVKPEEPFQPVKEATQL [P94N]?
A: area with substrate ECLYFQS: 0.0895; area with substrate EELYFQS: 0.125; area with substrate EKLYFQS: 0.078; area with substrate EVLYFQS: 0.12; area with substrate EWLYFQS: 0.0914

Q: With MGESLFKGPRDYNPISSSICHLTNESDGHTTSLYGIGFGPFIITNKHLFRRNNGTLVVQGLHGVFKVKDTTTLQQHLVDGRDMIIIRMPKDFPPFPQKLKFREPQREERICLVTTNFQTKSMSSMVSDTSCTFPSGDGIFWKHWIQTKDGQCGSPLVSTRDGFIVGIHSASNFTNTNNYFTSVPKNFMELLTNQEAQQWVSGWRLNADSVLWGGHKVFMVKPEEPFQPVKEATQL [S60G] as the variant, how does the “area with substrate ECLYFQS” value read?
A: 0.102

Q: What about the “area with substrate EILYFQS” value of the same variant?
A: 0.0833

Q: And the “area with substrate EQLYFQS” value?
A: 0.114

Q: And the “area with substrate ESLYFQS” value?
A: 0.088

Q: With MGESLFKGPRDYNPISSSICHLTNESDGHTTSLYGIGFGPFIITNKHLFRRNNGTLEVQSLHGVFKVKDTTTLQQHLVDGRDMIIIRMPKDFPPFPQKLKFREPQREERICLVTTNFQTKSMSSMVSDTSCTFPSGDGIFWKHWIQTKDGQCGSPLVSTRDGFIVGIHSASNFTNTNNYFTSVPKNFMELLTNQEAQQWVSGWRLNADSVLWGGHKVFMVKPEEPFQPVKEATQL [V57E] as the variant, how does the “area with substrate ECLYFQS” value read?
A: 0.124

Q: What about the “area with substrate EGLYFQS” value of the same variant?
A: 0.0771

Q: And the “area with substrate EILYFQS” value?
A: 0.122

Q: What about the “area with substrate EKLYFQS” value of the same variant?
A: 0.0745

Q: What about the “area with substrate EMLYFQS” value of the same variant?
A: 0.106

Q: What about the “area with substrate EQLYFQS” value of the same variant?
A: 0.132

Q: And the “area with substrate ESLYFQS” value?
A: 0.0988

Q: And the “area with substrate EYLYFQS” value?
A: 0.117

Q: For MGESLFKGPRDYNPISSSICHLTNESDGHTTSLYGIGFGPFIITNKHLFRRNNGTLVVQSLHGVFKVKDTTTLQQHLVDGRDMIIIRMPKDFPPFPQKLKFREPQREERICLVTTNFQCKSMSSMVSDTSCTFPSGDGIFWKHWIQTKDGQCGSPLVSTRDGFIVGIHSASNFTNTNNYFTSVPKNFMELLTNQEAQQWVSGWRLNADSVLWGGHKVFMVKPEEPFQPVKEATQL [T119C], which “area with substrate ECLYFQS” value is on record?
A: 0.106

Q: What about the “area with substrate EFLYFQS” value of the same variant?
A: 0.0938

Q: What about the “area with substrate EKLYFQS” value of the same variant?
A: 0.0935

Q: And the “area with substrate ELLYFQS” value?
A: 0.0827

Q: And the “area with substrate ESLYFQS” value?
A: 0.0886

Q: And the “area with substrate ETLYFQS” value?
A: 0.0556

Q: And the “area with substrate EVLYFQS” value?
A: 0.0937

Q: And the “area with substrate EYLYFQS” value?
A: 0.122

Q: For MGESLFKGPRDYNPISSSICHLTNESDGHTTSLYGIGFGPFIITNKHLFRRNNGTLVVQSLHGVFKVKDTTTLQQHLVDGRDMIIIRMPKDFPPFPQKLKFREPQREERICLVTTNFQTKSMSGMVSDTSCTFPSGDGIFWKHWIQTKDGQCGSPLVSTRDGFIVGIHSASNFTNTNNYFTSVPKNFMELLTNQEAQQWVSGWRLNADSVLWGGHKVFMVKPEEPFQPVKEATQL [S124G], which “area with substrate ECLYFQS” value is on record?
A: 0.106

Q: What about the “area with substrate EDLYFQS” value of the same variant?
A: 0.137

Q: And the “area with substrate EELYFQS” value?
A: 0.136

Q: And the “area with substrate EILYFQS” value?
A: 0.0973

Q: And the “area with substrate ELLYFQS” value?
A: 0.105

Q: What about the “area with substrate EPLYFQS” value of the same variant?
A: 0.142

Q: What about the “area with substrate EQLYFQS” value of the same variant?
A: 0.15

Q: What about the “area with substrate ESLYFQS” value of the same variant?
A: 0.121

Q: What about the “area with substrate EVLYFQS” value of the same variant?
A: 0.0973

Q: And the “area with substrate EWLYFQS” value?
A: 0.0848

Q: What about the “area with substrate EYLYFQS” value of the same variant?
A: 0.141

Q: Which results are given for MGESLFKGPRDYNPISSSICHLTNESDGHTTSLYGIGFGPFIITNKHLFRRNNGTLVVQSLHGVFKVKDTTTLQQHLVDGRDMIIIRMPKDFPPFPQKLKFREPQREERICLVTTNFQTKSMSSMVSDTSCTFPSGDGIFWKHWIQTKDGQCGSPLVSTRDGFIVGIHSASNFTNTNNYFTSVPKNFMLLLTNQEAQQWVSGWRLNADSVLWGGHKVFMVKPEEPFQPVKEATQL [E189L]?
A: area with substrate ECLYFQS: 0.102; area with substrate EELYFQS: 0.0972; area with substrate EFLYFQS: 0.0935; area with substrate EHLYFQS: 0.101; area with substrate EKLYFQS: 0.089; area with substrate ELLYFQS: 0.0693; area with substrate EPLYFQS: 0.114; area with substrate EQLYFQS: 0.121; area with substrate ERLYFQS: 0.0781; area with substrate ESLYFQS: 0.102

Q: With MGESLFKGPRDYNPISSSICHLTNESDGHTTSLYGIGFGPFIITNKHLFRRNNGTLVVQSLHGVFKVKDTTTLQQHLVDGRDMIIIRMPKDFPPFPLKLKFREPQREERICLVTTNFQTKSMSSMVSDTSCTFPSGDGIFWKHWIQTKDGQCGSPLVSTRDGFIVGIHSASNFTNTNNYFTSVPKNFMELLTNQEAQQWVSGWRLNADSVLWGGHKVFMVKPEEPFQPVKEATQL [Q97L] as the variant, how does the “area with substrate ECLYFQS” value read?
A: 0.0994

Q: What about the “area with substrate EILYFQS” value of the same variant?
A: 0.0723

Q: And the “area with substrate EMLYFQS” value?
A: 0.107

Q: What about the “area with substrate EVLYFQS” value of the same variant?
A: 0.103
